This passage reports switch fluorescence ratio results from the supplement of paper PMC10126150.

Sequences with one replicate were seen in a single cluster, so their values are uncertain.

The series concerns ATP. Put plainly: switch fluorescence ratio, 500 uM ATP over buffer (Cy3 cluster intensity, sum of 5 cycles each) (fold (ratio)); higher = stronger signal-on switching upon ATP binding; sequences stand for … in TCGTCGGCAGCGTCAGATGTGTATAAGAGACAGTTTTTTTTTTTTTTTTTTTTTTTTT…TC. To be noted: aptamer strand: ATP DNA aptamer (quencher-CACCTGGGGGAGTATTGCGGAGGAAGG + anchor), 100 nM annealed; ATP concentration: 500 uM; one replicate. Summed up:
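The fluorescence ratio divides summed target-cycle Cy3 intensity by summed buffer-cycle Cy3 intensity for each cluster and is averaged per switch-domain sequence. Cy3-labelled switching-strand clusters on a modified Illumina MiSeq flow-cell were annealed to 100 nM quencher-labelled ATP aptamer, then imaged in selection buffer and again after 15 min with 500 uM ATP at 22 °C. Five such cycles were run, with NaOH stripping and re-annealing between them, and clusters outside 100-1000 RFU were excluded.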
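Also: ATP exposure 15 min at 22 °C before imaging.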

On to TACAAATGGA, for which the switch fluorescence ratio worked out at 1.01.

TAAGCCACCA: the switch fluorescence ratio came to 1.14.

Take GGACGACAAA: the switch fluorescence ratio turned out to be 1.01.

Take ACGGACTCCA: the switch fluorescence ratio is 1.33.

Consider ACTGCGGGCT, for which the switch fluorescence ratio amounted to 1.02.

Take ACACTGGTGT: the switch fluorescence ratio worked out at 1.08.

Turning to CACTTGCCGT, the switch fluorescence ratio stood at 1.05.

For ATTGCGCACC, the switch fluorescence ratio was found to be 1.03.

Consider TTAAAGTTTC, for which the switch fluorescence ratio came out at 1.03.

As to TGTAAAACAT, the switch fluorescence ratio was 1.05.

In the case of GAGGTGGATG, the switch fluorescence ratio was found to be 1.02.

As for TAGATGCTCT, the switch fluorescence ratio worked out at 0.983.

For ACAACATGCG, the switch fluorescence ratio was determined as 0.992.

Consider CATTACCACC, for which the switch fluorescence ratio turned out to be 1.26.

Regarding GTTAGTCGTT, the switch fluorescence ratio turned out to be 1.01.

With GACGTACTTT, the switch fluorescence ratio came to 1.61.

Take AATCCTGAAA: the switch fluorescence ratio stood at 1.03.

For GGAACGGATG, the switch fluorescence ratio came to 0.982.

For CATTAATAAG, the switch fluorescence ratio was determined as 0.943.

For the sequence CCAAGCCAAC, the switch fluorescence ratio is 3.63.

Turning to CACGTAATAC, the switch fluorescence ratio came to 2.39.

With CTGTCTAAAG, the switch fluorescence ratio is 1.05.

Turning to TTGGGTCAGC, the switch fluorescence ratio came to 0.986.

Take TGGAGGTTGC: the switch fluorescence ratio stood at 1.01.

Consider TTTTCAGC, for which the switch fluorescence ratio was 0.991.

In the case of AATAGGGGTC, the switch fluorescence ratio came to 1.02.

As to GTTGTTTCGA, the switch fluorescence ratio is 0.986.

Take AGGAGAGATG: the switch fluorescence ratio came out at 0.961.

Take TATAGAACTA: the switch fluorescence ratio was determined as 1.02.

With CTTTGTCTAG, the switch fluorescence ratio came to 0.966.

On to GGAGGAAGC, for which the switch fluorescence ratio amounted to 1.02.

For AAAGTCATCG, the switch fluorescence ratio was found to be 0.96.

Consider CACTTATGGA, for which the switch fluorescence ratio was 0.98.

On to GGGTTATCGA, for which the switch fluorescence ratio came out at 0.961.

As for AGAAGTGAAG, the switch fluorescence ratio worked out at 1.03.

Turning to TTTCTATGT, the switch fluorescence ratio is 0.951.

In the case of TTGACCTTGT, the switch fluorescence ratio is 1.02.

Regarding AGGATTAAGA, the switch fluorescence ratio stood at 0.987.

With TTGTTTACGG, the switch fluorescence ratio worked out at 0.991.

TTAAGGAATC: the switch fluorescence ratio was 1.03.

As for ATGGGTGAAC, the switch fluorescence ratio was found to be 1.06.

As for AAGTCTGCCT, the switch fluorescence ratio is 1.

Take AAGTATCCTA: the switch fluorescence ratio was found to be 1.04.

With ATGCGGAGGG, the switch fluorescence ratio worked out at 1.01.

For CGGGAGTTTC, the switch fluorescence ratio is 1.01.

Regarding TCGCCTTGCT, the switch fluorescence ratio came out at 1.04.

As for GGAGCATGTA, the switch fluorescence ratio amounted to 1.06.

Turning to AGAGCCCAG, the switch fluorescence ratio is 1.01.

As to GATGGGGCCG, the switch fluorescence ratio came to 0.997.

Turning to ATTCAACCG, the switch fluorescence ratio worked out at 1.03.

On to CGAGTAAGTC, for which the switch fluorescence ratio is 1.08.

Regarding CGGTTAAGTT, the switch fluorescence ratio is 1.01.

As for GCTCACAATG, the switch fluorescence ratio came to 1.12.

Regarding AGTATCGCGG, the switch fluorescence ratio is 1.01.

TGGGGATGC: the switch fluorescence ratio turned out to be 0.954.

On to AGCCGCTAGA, for which the switch fluorescence ratio came out at 1.08.

Consider GATGCCATGA, for which the switch fluorescence ratio was 1.04.

With CCAAGTACA, the switch fluorescence ratio worked out at 1.23.

CACCAAGTGC: the switch fluorescence ratio stood at 1.23.

Regarding TTATTGGATC, the switch fluorescence ratio came out at 0.823.

Consider TATGGTTCCA, for which the switch fluorescence ratio amounted to 1.02.

As for GGAAGATTGG, the switch fluorescence ratio came to 1.01.

Take CGTGTGCCGG: the switch fluorescence ratio came out at 0.971.

Regarding ACAATGTTAA, the switch fluorescence ratio turned out to be 0.988.

CAGCACGTCG: the switch fluorescence ratio was determined as 1.08.

As for ATGGAGGATT, the switch fluorescence ratio stood at 1.04.

For the sequence ATTTGCGAAC, the switch fluorescence ratio was 1.06.

On to TCCTGGTTTC, for which the switch fluorescence ratio worked out at 1.04.

As to CCGTTGAGGA, the switch fluorescence ratio came out at 1.01.

In the case of ATGAAAGGAA, the switch fluorescence ratio is 1.

Take GCATTATCTG: the switch fluorescence ratio stood at 1.

With CCAATATTAG, the switch fluorescence ratio turned out to be 1.09.

Take CCACGTTTAA: the switch fluorescence ratio stood at 1.13.

Turning to GAAAGCTTAA, the switch fluorescence ratio amounted to 1.13.

As for CATTCGGTTT, the switch fluorescence ratio amounted to 0.976.

Consider ATGGTTGCTA, for which the switch fluorescence ratio worked out at 0.986.

As to GCTTTCAGAT, the switch fluorescence ratio came to 0.995.

On to GAAGAAAGTG, for which the switch fluorescence ratio was found to be 0.912.

Consider ATCCACGCAA, for which the switch fluorescence ratio turned out to be 1.08.

Turning to AAGTTAGGTA, the switch fluorescence ratio was 0.988.

As for CCTGTCCCGA, the switch fluorescence ratio was determined as 1.02.

Turning to TCTTTTAT, the switch fluorescence ratio was determined as 1.03.

Regarding ATACAGGTTG, the switch fluorescence ratio is 1.14.

CGCGCAACGG: the switch fluorescence ratio was 1.23.

Take AAAATGTGGC: the switch fluorescence ratio was determined as 1.

On to CACCTAAATA, for which the switch fluorescence ratio is 1.05.

Consider CCAGACAGAA, for which the switch fluorescence ratio worked out at 0.976.

As for CGTGGATAG, the switch fluorescence ratio came out at 1.02.

As for CTTTTGTTCC, the switch fluorescence ratio worked out at 1.05.

As for CGGCGGCCCA, the switch fluorescence ratio came out at 0.988.

As for GTTCTAGGA, the switch fluorescence ratio was 1.02.

ATCACCCCTA: the switch fluorescence ratio was 1.22.

As for GGAGCCGGTT, the switch fluorescence ratio came to 0.996.

In the case of GTGATATACT, the switch fluorescence ratio came out at 1.03.

In the case of TGAAATTGGT, the switch fluorescence ratio worked out at 0.947.

With CCGGTACTAC, the switch fluorescence ratio stood at 4.76.

Take ATGGGTTTCG: the switch fluorescence ratio stood at 0.958.

With AACTGGGTCC, the switch fluorescence ratio came to 1.01.

With ATGGTTGAGT, the switch fluorescence ratio came out at 0.967.

For the sequence AACTACACGC, the switch fluorescence ratio was found to be 1.32.

Consider AGTAAGAGTA, for which the switch fluorescence ratio was determined as 0.971.

Take CGCCTAGTA: the switch fluorescence ratio worked out at 0.965.

As for TCTGACAGGA, the switch fluorescence ratio came to 1.01.

For the sequence ACTATTTATT, the switch fluorescence ratio stood at 1.02.

With TGACTGTTAG, the switch fluorescence ratio is 1.

In the case of CGTATTATAG, the switch fluorescence ratio is 0.997.

As for CGCATCGGTA, the switch fluorescence ratio turned out to be 1.03.

Turning to TTGCCACATA, the switch fluorescence ratio came to 1.09.

On to GTGACACCGC, for which the switch fluorescence ratio was found to be 1.19.

AAAGGAGACG: the switch fluorescence ratio was 1.03.

Turning to CAGGTAAAAT, the switch fluorescence ratio is 1.02.

On to CTTCAGTATT, for which the switch fluorescence ratio stood at 0.97.

TATACCGGTC: the switch fluorescence ratio was 1.01.

Regarding TCGCGTATTG, the switch fluorescence ratio worked out at 1.45.

For the sequence AGCCCATCC, the switch fluorescence ratio was found to be 1.03.

For the sequence TATCTCGAAA, the switch fluorescence ratio was 1.

As to TCTTCGAAGA, the switch fluorescence ratio worked out at 0.984.

On to GCTGTCGTGC, for which the switch fluorescence ratio came to 0.935.

As to CACTTAGCCG, the switch fluorescence ratio turned out to be 0.992.

Take CGGGAATCGC: the switch fluorescence ratio worked out at 0.987.
